The whole screen tested about 340,000 compounds, of which about 530 (0.16%) were called active. The shares of active, inactive and inconclusive entries below differ from those in the screen. Cut-off read from the data, not from the text of the source: active = activity change below about -80%; inconclusive = between about -30% and that limit; inactive = weaker than that.
Assay: Small Molecules that selectively kill Giardia lamblia: qHTS;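 note: parasites exposed to compound for two days anaerobically before the ATP read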
Conditions: Giardia lamblia trophozoite viability; at 7.66 µM; stronger effect = lower value
Source text: Giardia lamblia is a human pathogen afflicting impoverished nations, and the most common cause of outbreaks of diarrhea in the United States. Giardia has been classified by the CDC as a category B bioterrorism organism. The favored anti giardiasis drugs in the US are metronidazole or tinidazole, compounds that have undesirable side effects. Moreover, increasing resistance to drug regimes and recurrence are a concern. It is thus clear that alternative drug treatments are needed.
In a collaboration between the University of Maryland, College Park and the NIH Chemical Genomics Center, a bioluminescence Giardia viability assay based on the trophozoites' ATP content was developed. This assay is suitable for high throughput screening, and miniaturized the assay for compound screening in 1536-well plates. The goal of the project is to screen the Molecular Libraries Small Molecule Repository (MLSMR) for compounds that selectively kill Giardia trophozoites.
NIH Chemical Genomics Center [NCGC]
NIH Molecular Libraries Probe Centers Network [MLPCN]
Assay Submitter (PI): Osnat Herzberg, University of Maryland, College Park, MD.
1. Dispense 2 ul/well media
2. Dispense 23 nl/well compounds
3. Dispense 4 ul/well Giardia trophozoites at a concentration of 100 cells/well
4. Incubate 48 hrs at 37 deg C anaerobically
5. Dispense 4 ul/well ATPLite 1-Step Luminescence assay kit
6. Incubate 15-30 min at room temperature
7. Read luminescence signal on ViewLux plate reader
% is set by controls: 0 for no effect and ±100 for the full control effect.

Compound | activity change
O=C(O)C(Cc1cn[nH]n1)=NO | inconclusive: -37% [inhibitor]
COc1cc(CCCN2C(=S)NC[C@@H]2c2ccccc2)cc(OC)c1OC | inconclusive: -32% [inhibitor]
COc1ccc(-c2cn3cc(C)ccc3n2)cc1OC | inconclusive: -45.5% [inhibitor]
CC1=CC(c2ccc(Cl)cc2)n2nc(NC(=O)c3ccccc3)nc2N1 (stereo unspecified) | inactive: -13.8%
Cc1cccc(N2CCN(c3nnc(C(F)(F)F)s3)CC2)c1 | inconclusive: -31.8% [inhibitor]
Cc1cc(C)nc(N/N=C/c2cc(C)n(CC(F)(F)F)c2C)n1 | inconclusive: -32.3% [inhibitor]
O=C(CSc1nc(-c2ccco2)cc(C(F)(F)F)n1)NC1CCCCCCC1 | inconclusive: -37.9% [inhibitor]
COC(=O)c1c(C)oc2ccc(N(C(=O)c3ccncc3)S(=O)(=O)c3ccccc3)cc12 | inactive: 6.23%
Cc1c(C)c2cc3c(C)coc3cc2oc1=O | inactive: -12.1%
O=C(CCl)Nc1cccc(-c2cnc3ccccc3n2)c1 | inconclusive: -35.3% [inhibitor]
CC1(C)c2ccccc2-n2c1cc1oc(=O)cc(O)c1c2=O | inconclusive: -30.2% [inhibitor]
c1ccc(-c2nnc(CSc3ccc4c(c3)OCCO4)o2)cc1 | inconclusive: -30.5% [inhibitor]
CSc1ccc(C(=O)/C=C/c2ccc(N)cc2)cc1 | inconclusive: -53.1% [inhibitor]
O=[N+]([O-])c1cc(C(F)(F)F)ccc1Oc1cccnc1[N+](=O)[O-] | inconclusive: -79.1% [inhibitor]
C=CCNCc1ccc(C(=O)NCCCCCCC)cc1[N+](=O)[O-] | inconclusive: -30.9% [inhibitor]
CCCOc1ccc(CCC(=O)N/N=C/c2ccc([N+](=O)[O-])o2)cc1 | active: -88%
CC(=O)Nc1ccc(OCC(=O)NCc2ccccc2)cc1 | inconclusive: -40.9% [inhibitor]
O=C(COc1cccnc1[N+](=O)[O-])Nc1ccc(Cl)cc1F | inconclusive: -61.5% [inhibitor]
O=c1c2ccccc2ncn1Cc1ccccc1 | inactive: -10.1%
O=C(c1cccc([N+](=O)[O-])c1)N1CCN(Cc2ccc3c(c2)OCO3)CC1 | inactive: -20.3%
CCc1ccccc1NC(=O)c1ccc([N+](=O)[O-])s1 | inconclusive: -65.6% [inhibitor]

Compound | activity change
CC(=O)c1cc2c(cc1N/C(=N/S(=O)(=O)c1ccc(C)cc1)c1ccccc1)OCO2 | inactive: 5.3%
Cc1c(NC2(C#N)CCCC2)c(=O)n(-c2ccccc2)n1C | inconclusive: -49% [inhibitor]
Cc1ccnc(NC(=O)c2cccc(S(=O)(=O)N3CCN(c4ccccc4)CC3)c2)c1 | inconclusive: -43.9% [inhibitor]
CN(C(=O)Cn1cc([N+](=O)[O-])ccc1=O)C1CCCCC1 | inconclusive: -31.7% [inhibitor]
Cc1cnc(NC(=O)c2ccc3c(c2)OCCO3)s1 | active: -91.2%
CC1COc2ccccc2N1C(=O)c1ccc(Cl)cc1 (stereo unspecified) | inactive: -8.26%
CCOc1cc2[nH]c(=S)n(CCN3CCC(C)CC3)c(=O)c2cc1OCC | inactive: 2.44%
CCOc1ccc(C(=O)NNC(=O)CN2C(=O)NC3(CCCC3)C2=O)cc1 | inconclusive: -32.3% [inhibitor]
COCCCNC(=O)C(C#N)c1nc2ccccc2nc1N1CCN(Cc2ccccc2)CC1 (stereo unspecified) | inactive: 21.5%
Cc1cccc2cc(-c3nc4ccc(C(=O)O)cc4[nH]3)c(=O)oc12 | inconclusive: -45.6% [inhibitor]
O=C(NC1CCN(C(=S)Nc2ccc(F)cc2)CC1)C1CCCCC1 | inactive: -1.58%
CCNC(=S)NNC(=O)c1csc2c1CCCC2 | inactive: 12.8%
CNN/C(N=Cc1ccc([N+](=O)[O-])s1)=N\S(=O)(=O)c1cc(C)c(Cl)cc1SCc1ccccc1 | active: -85.8%
CCOC(=O)CN1C(=O)C(=O)c2cccc(C)c21 | inconclusive: -38.4% [inhibitor]
Cc1ccc(-c2c(C(=O)N(C)Cc3ccccc3)oc(=O)c3ccccc23)cc1 | inactive: 15%
COc1ccc(Cc2noc(CN(C)CCN3CCc4ccccc4C3)n2)cc1OC | inactive: -0.595%
CC(C)Cn1c(S(=O)(=O)O)nc2ccccc21 | inconclusive: -36.8% [inhibitor]
COc1ccccc1CC(=O)Nc1ccc2c(c1)C(=O)NC2=O | inactive: -7.85%
Cc1ccccc1Nc1ccc(S(=O)(=O)N2CCOCC2)cc1[N+](=O)[O-] | inactive: -2.38%
Cc1nc(C)c(C(=O)Nc2ncc([N+](=O)[O-])s2)o1 | active: -87.7%
Cc1nc(N2CCN(S(=O)(=O)c3ccccc3C#N)CC2)c2c(-c3ccccc3)csc2n1 | inactive: -3.3%

Compound | activity change
CN(C)CCNC(=O)c1scc2c1CCCC2 | inconclusive: -42.8% [inhibitor]
O=C(Cn1ncc2c1-c1ccccc1OC2)Nc1ccc(S(=O)(=O)N2CCCCC2)cc1 | inconclusive: -30.9% [inhibitor]
O=[N+]([O-])c1ccc(Nc2ccccc2)c2nonc12 | inconclusive: -49.5% [inhibitor]
CCOC(=O)C1(CCOC)CCN(C(=O)c2ccc(CSC)o2)CC1 | inconclusive: -35.9% [inhibitor]
O=[N+]([O-])c1ccc2nc(-c3ccc(OC(F)F)cc3)cn2c1 | inconclusive: -61.1% [inhibitor]
O=C(Cn1ncc2c(=O)oc3ccccc3c21)NCC1CCCO1 (stereo unspecified) | inconclusive: -33.1% [inhibitor]
Cc1nn(CC(=O)Nc2ccc(Br)cc2F)c(=O)c2cccn12 | inactive: 12.2%
C=CCNC(=O)c1ccc(Cl)cc1Cl | inconclusive: -31.3% [inhibitor]
CCN(CC)CC(=O)Nc1c(C)cccc1C | inconclusive: -50.1% [inhibitor]
CCC(=O)Nc1nnc(S(=O)(=O)N(C)Cc2ccco2)s1 | inactive: 11.4%
O=C(Cc1ccccc1)N1CCCC(c2nc(-c3ccc(S(=O)(=O)N4CCCC4)cc3)no2)C1 (stereo unspecified) | inactive: 3.64%
O=C(Nc1ccccn1)c1ccc(NC(=O)c2ccco2)cc1 | inconclusive: -35% [inhibitor]
Cc1ccc(Cn2c(=N)c(C(=O)NCC3CCCO3)cc3c(=O)n4cccc(C)c4nc32)cc1 (stereo unspecified) | inactive: -8.33%
COc1ccc(/C=N/NC(=O)CC(=O)NC2CCCCC2)cc1 | inconclusive: -31.1% [inhibitor]
Oc1c(Br)cc(Br)cc1CNc1ccc(F)cc1 | inactive: -1.48%
COc1ccc(OCc2nnc(SCC(=O)N3c4ccccc4Sc4ccc(Cl)cc43)o2)cc1 | inactive: -12.5%
CCc1nnc(NC(=O)COc2ccc3ccccc3c2)s1 | inactive: -0.0211%
CCCNC(=O)C(Cc1cccc(C#N)c1)NC(=O)c1ccc(C#N)cc1 (stereo unspecified) | inconclusive: -40.2% [inhibitor]
CCO[C@@H]1c2c(ccc3ccc(=O)oc23)OC(C)(C)[C@H]1O | inconclusive: -33.6% [inhibitor]
O=C(Nc1ccc(Cc2ccncc2)cc1)c1ccc(N2CCOCC2)c([N+](=O)[O-])c1 | inactive: -5.8%
CCN(CC)C(=O)CSc1nnc2nnc3cc(Cl)ccc3n12 | active: -81.1%

Compound | activity change
O=C(Oc1cccc2c(O)cccc12)c1ccccc1Cl | inconclusive: -50.5% [inhibitor]
COc1ccc2cc(C(=O)N/N=C/c3cc(OC)c(OC)c(OC)c3)[nH]c2c1 | inconclusive: -31% [inhibitor]
Nc1cc(Cl)ccc1C(=O)OCC(=O)NC1CCCCCCC1 | inconclusive: -36.7% [inhibitor]
Cc1nc(SCCC(=O)O)c2cc(-c3ccccc3)sc2n1 | inconclusive: -40.8% [inhibitor]
Cc1c(C(=O)NCCC2=CCCCC2)oc2ccc(S(=O)(=O)N3CCC4(CC3)OCCO4)cc12 | inactive: 29.1%
CN(Cc1ccc(OCC(O)CN2CCCCC2)cc1)Cc1ccnc2ccccc12 (stereo unspecified) | inactive: 22.5%
CC(C)n1ncc2c(C(=O)NCC(=O)Nc3ccccc3Br)cc(C3CC3)nc21 | inactive: -1.91%
O=C(N/N=C/c1ccc(O)c(O)c1)C1CC1 | inconclusive: -32.5% [inhibitor]
O=C(Nc1ccccc1N1CCCC1)c1ccc([N+](=O)[O-])o1 | inconclusive: -69.1% [inhibitor]
O=C(NC(=S)Nc1cccc2cccnc12)c1ccccc1 | inactive: -9.75%
CCCC[C@@H]1C=C(C(=O)O)[C@H](c2ccc(Br)cc2)N1S(=O)(=O)c1ccc(C)cc1 | inconclusive: -33.9% [inhibitor]
CC(C)Oc1ccc(C(=O)Nc2nc3ccccc3[nH]2)cc1 | inconclusive: -64.4% [inhibitor]
O=C(O)CCCN1C(=O)/C(=C\c2ccccc2OCc2ccccc2)SC1=S | inactive: -4.46%
CCOc1ccc(N2C(=O)CC(NCc3ccc(S(N)(=O)=O)cc3)C2=O)cc1 (stereo unspecified) | inactive: 9.45%
Cc1ccc(C(=O)c2coc3cc([N+](=O)[O-])c(O)c([N+](=O)[O-])c23)cc1 | inconclusive: -34.4% [inhibitor]
C[C@@H]1CC=C[C@H]2[C@H]1C(=O)N(Cc1ccccc1)[C@H]2c1ccc2ccccc2c1/C=C/c1ccccc1 | inconclusive: -52.3% [inhibitor]
CCCCN1C(=N)N([C@@H](CCC)CN2CCC[C@H]2CN2C(N)=NC[C@@H]2Cc2ccccc2)C[C@H]1Cc1ccccc1 | inconclusive: -30.1% [inhibitor]
COc1ccc(C(=O)Nc2ccccc2C(N)=O)cc1 | inconclusive: -36.5% [inhibitor]
